Measurements: paper PMC12069442

Substrate: O=C1Cc2cc(CCN3CCN(c4nsc5ccccc45)CC3)c(Cl)cc2N1
Assay: not read
Settings: 20 min
[1] = other: CYP3A4.13, ziprasidone 0.1–25 μM
[2] = other: CYP3A4.14, ziprasidone 0.1–25 μM
[3] = other: CYP3A4.15, ziprasidone 0.1–25 μM
[4] = other: CYP3A4.16, ziprasidone 0.1–25 μM
[5] = other: CYP3A4.18, ziprasidone 0.1–25 μM
[6] = other: CYP3A4.19, ziprasidone 0.1–25 μM
[7] = other: CYP3A4.23, ziprasidone 0.1–25 μM
[8] = other: CYP3A4.24, ziprasidone 0.1–25 μM
[9] = other: CYP3A4.28, ziprasidone 0.1–25 μM
[10] = other: CYP3A4.31, ziprasidone 0.1–25 μM

B1: CYP3A4.13 (Homo sapiens; P416L) (protein)
chain: MALIPDLAMETWLLLAVSLVLLYLYGTHSHGLFKKLGIPGPTPLPFLGNILSYHKGFCMFDMECHKKYGKVWGFYDGQQPVLAITDPDMIKTVLVKECYSVFTNRRPFGPVGFMKSAISIAEDEEWKRLRSLLSPTFTSGKLKEMVPIIAQYGDVLVRNLRREAETGKPVTLKDVFGAYSMDVITSTSFGVNIDSLNNPQDPFVENTKKLLRFDFLDPFFLSITVFPFLIPILEVLNICVFPREVTNFLRKSVKRMKESRLEDTQKHRVDFLQLMIDSQNSKETESHKALSDLELVAQSIIFIFAGYETTSSVLSFIMYELATHPDVQQKLQEEIDAVLPNKAPPTYDTVLQMEYLDMVVNETLRLFPIAMRLERVCKKDVEINGMFIPKGVVVMIPSYALHRDPKYWTEPEKFLLERFSKKNKDNIDPYIYTPFGSGPRNCIGMRFALMNMKLALIRVLQNFSFKPCKETQIPLKLSLGGLLQPEKPVVLKVESRDGTVSGA
- Km [1]: 0.73 ± 0.15 µM
- kcat [1]: 0.0668 ± 0.00183 s⁻¹

B2: CYP3A4.14 (Homo sapiens; L15P) (protein)
chain: MALIPDLAMETWLLPAVSLVLLYLYGTHSHGLFKKLGIPGPTPLPFLGNILSYHKGFCMFDMECHKKYGKVWGFYDGQQPVLAITDPDMIKTVLVKECYSVFTNRRPFGPVGFMKSAISIAEDEEWKRLRSLLSPTFTSGKLKEMVPIIAQYGDVLVRNLRREAETGKPVTLKDVFGAYSMDVITSTSFGVNIDSLNNPQDPFVENTKKLLRFDFLDPFFLSITVFPFLIPILEVLNICVFPREVTNFLRKSVKRMKESRLEDTQKHRVDFLQLMIDSQNSKETESHKALSDLELVAQSIIFIFAGYETTSSVLSFIMYELATHPDVQQKLQEEIDAVLPNKAPPTYDTVLQMEYLDMVVNETLRLFPIAMRLERVCKKDVEINGMFIPKGVVVMIPSYALHRDPKYWTEPEKFLPERFSKKNKDNIDPYIYTPFGSGPRNCIGMRFALMNMKLALIRVLQNFSFKPCKETQIPLKLSLGGLLQPEKPVVLKVESRDGTVSGA
- Km [2]: 1.93 ± 0.31 µM
- kcat [2]: 0.212 ± 0.0212 s⁻¹

B3: CYP3A4.15 (Homo sapiens; R162Q) (protein)
chain: MALIPDLAMETWLLLAVSLVLLYLYGTHSHGLFKKLGIPGPTPLPFLGNILSYHKGFCMFDMECHKKYGKVWGFYDGQQPVLAITDPDMIKTVLVKECYSVFTNRRPFGPVGFMKSAISIAEDEEWKRLRSLLSPTFTSGKLKEMVPIIAQYGDVLVRNLRQEAETGKPVTLKDVFGAYSMDVITSTSFGVNIDSLNNPQDPFVENTKKLLRFDFLDPFFLSITVFPFLIPILEVLNICVFPREVTNFLRKSVKRMKESRLEDTQKHRVDFLQLMIDSQNSKETESHKALSDLELVAQSIIFIFAGYETTSSVLSFIMYELATHPDVQQKLQEEIDAVLPNKAPPTYDTVLQMEYLDMVVNETLRLFPIAMRLERVCKKDVEINGMFIPKGVVVMIPSYALHRDPKYWTEPEKFLPERFSKKNKDNIDPYIYTPFGSGPRNCIGMRFALMNMKLALIRVLQNFSFKPCKETQIPLKLSLGGLLQPEKPVVLKVESRDGTVSGA
- Km [3]: 3.26 ± 1.31 µM
- kcat [3]: 0.497 ± 0.127 s⁻¹

B4: CYP3A4.16 (Homo sapiens; T185S) (protein)
chain: MALIPDLAMETWLLLAVSLVLLYLYGTHSHGLFKKLGIPGPTPLPFLGNILSYHKGFCMFDMECHKKYGKVWGFYDGQQPVLAITDPDMIKTVLVKECYSVFTNRRPFGPVGFMKSAISIAEDEEWKRLRSLLSPTFTSGKLKEMVPIIAQYGDVLVRNLRREAETGKPVTLKDVFGAYSMDVISSTSFGVNIDSLNNPQDPFVENTKKLLRFDFLDPFFLSITVFPFLIPILEVLNICVFPREVTNFLRKSVKRMKESRLEDTQKHRVDFLQLMIDSQNSKETESHKALSDLELVAQSIIFIFAGYETTSSVLSFIMYELATHPDVQQKLQEEIDAVLPNKAPPTYDTVLQMEYLDMVVNETLRLFPIAMRLERVCKKDVEINGMFIPKGVVVMIPSYALHRDPKYWTEPEKFLPERFSKKNKDNIDPYIYTPFGSGPRNCIGMRFALMNMKLALIRVLQNFSFKPCKETQIPLKLSLGGLLQPEKPVVLKVESRDGTVSGA
- Km [4]: 7.07 ± 4.52 µM
- kcat [4]: 0.738 ± 0.33 s⁻¹

B5: CYP3A4.18 (Homo sapiens; L293P) (protein)
chain: MALIPDLAMETWLLLAVSLVLLYLYGTHSHGLFKKLGIPGPTPLPFLGNILSYHKGFCMFDMECHKKYGKVWGFYDGQQPVLAITDPDMIKTVLVKECYSVFTNRRPFGPVGFMKSAISIAEDEEWKRLRSLLSPTFTSGKLKEMVPIIAQYGDVLVRNLRREAETGKPVTLKDVFGAYSMDVITSTSFGVNIDSLNNPQDPFVENTKKLLRFDFLDPFFLSITVFPFLIPILEVLNICVFPREVTNFLRKSVKRMKESRLEDTQKHRVDFLQLMIDSQNSKETESHKALSDPELVAQSIIFIFAGYETTSSVLSFIMYELATHPDVQQKLQEEIDAVLPNKAPPTYDTVLQMEYLDMVVNETLRLFPIAMRLERVCKKDVEINGMFIPKGVVVMIPSYALHRDPKYWTEPEKFLPERFSKKNKDNIDPYIYTPFGSGPRNCIGMRFALMNMKLALIRVLQNFSFKPCKETQIPLKLSLGGLLQPEKPVVLKVESRDGTVSGA
- Km [5]: 1.78 ± 0.81 µM
- kcat [5]: 0.184 ± 0.047 s⁻¹

B6: CYP3A4.19 (Homo sapiens; P467S) (protein)
chain: MALIPDLAMETWLLLAVSLVLLYLYGTHSHGLFKKLGIPGPTPLPFLGNILSYHKGFCMFDMECHKKYGKVWGFYDGQQPVLAITDPDMIKTVLVKECYSVFTNRRPFGPVGFMKSAISIAEDEEWKRLRSLLSPTFTSGKLKEMVPIIAQYGDVLVRNLRREAETGKPVTLKDVFGAYSMDVITSTSFGVNIDSLNNPQDPFVENTKKLLRFDFLDPFFLSITVFPFLIPILEVLNICVFPREVTNFLRKSVKRMKESRLEDTQKHRVDFLQLMIDSQNSKETESHKALSDLELVAQSIIFIFAGYETTSSVLSFIMYELATHPDVQQKLQEEIDAVLPNKAPPTYDTVLQMEYLDMVVNETLRLFPIAMRLERVCKKDVEINGMFIPKGVVVMIPSYALHRDPKYWTEPEKFLPERFSKKNKDNIDPYIYTPFGSGPRNCIGMRFALMNMKLALIRVLQNFSFKSCKETQIPLKLSLGGLLQPEKPVVLKVESRDGTVSGA
- Km [6]: 3.63 ± 0.85 µM
- kcat [6]: 0.371 ± 0.0672 s⁻¹

B7: CYP3A4.23 (Homo sapiens; R162W) (protein)
chain: MALIPDLAMETWLLLAVSLVLLYLYGTHSHGLFKKLGIPGPTPLPFLGNILSYHKGFCMFDMECHKKYGKVWGFYDGQQPVLAITDPDMIKTVLVKECYSVFTNRRPFGPVGFMKSAISIAEDEEWKRLRSLLSPTFTSGKLKEMVPIIAQYGDVLVRNLRWEAETGKPVTLKDVFGAYSMDVITSTSFGVNIDSLNNPQDPFVENTKKLLRFDFLDPFFLSITVFPFLIPILEVLNICVFPREVTNFLRKSVKRMKESRLEDTQKHRVDFLQLMIDSQNSKETESHKALSDLELVAQSIIFIFAGYETTSSVLSFIMYELATHPDVQQKLQEEIDAVLPNKAPPTYDTVLQMEYLDMVVNETLRLFPIAMRLERVCKKDVEINGMFIPKGVVVMIPSYALHRDPKYWTEPEKFLPERFSKKNKDNIDPYIYTPFGSGPRNCIGMRFALMNMKLALIRVLQNFSFKPCKETQIPLKLSLGGLLQPEKPVVLKVESRDGTVSGA
- Km [7]: 2.62 ± 0.82 µM
- kcat [7]: 0.26 ± 0.05 s⁻¹

B8: CYP3A4.24 (Homo sapiens; Q200H) (protein)
chain: MALIPDLAMETWLLLAVSLVLLYLYGTHSHGLFKKLGIPGPTPLPFLGNILSYHKGFCMFDMECHKKYGKVWGFYDGQQPVLAITDPDMIKTVLVKECYSVFTNRRPFGPVGFMKSAISIAEDEEWKRLRSLLSPTFTSGKLKEMVPIIAQYGDVLVRNLRREAETGKPVTLKDVFGAYSMDVITSTSFGVNIDSLNNPHDPFVENTKKLLRFDFLDPFFLSITVFPFLIPILEVLNICVFPREVTNFLRKSVKRMKESRLEDTQKHRVDFLQLMIDSQNSKETESHKALSDLELVAQSIIFIFAGYETTSSVLSFIMYELATHPDVQQKLQEEIDAVLPNKAPPTYDTVLQMEYLDMVVNETLRLFPIAMRLERVCKKDVEINGMFIPKGVVVMIPSYALHRDPKYWTEPEKFLPERFSKKNKDNIDPYIYTPFGSGPRNCIGMRFALMNMKLALIRVLQNFSFKPCKETQIPLKLSLGGLLQPEKPVVLKVESRDGTVSGA
- Km [8]: 2.56 ± 0.63 µM
- kcat [8]: 0.144 ± 0.02 s⁻¹

B9: CYP3A4.28 (Homo sapiens; L22V) (protein)
chain: MALIPDLAMETWLLLAVSLVLVYLYGTHSHGLFKKLGIPGPTPLPFLGNILSYHKGFCMFDMECHKKYGKVWGFYDGQQPVLAITDPDMIKTVLVKECYSVFTNRRPFGPVGFMKSAISIAEDEEWKRLRSLLSPTFTSGKLKEMVPIIAQYGDVLVRNLRREAETGKPVTLKDVFGAYSMDVITSTSFGVNIDSLNNPQDPFVENTKKLLRFDFLDPFFLSITVFPFLIPILEVLNICVFPREVTNFLRKSVKRMKESRLEDTQKHRVDFLQLMIDSQNSKETESHKALSDLELVAQSIIFIFAGYETTSSVLSFIMYELATHPDVQQKLQEEIDAVLPNKAPPTYDTVLQMEYLDMVVNETLRLFPIAMRLERVCKKDVEINGMFIPKGVVVMIPSYALHRDPKYWTEPEKFLPERFSKKNKDNIDPYIYTPFGSGPRNCIGMRFALMNMKLALIRVLQNFSFKPCKETQIPLKLSLGGLLQPEKPVVLKVESRDGTVSGA
- Km [9]: 4.36 ± 2.63 µM
- kcat [9]: 0.385 ± 0.171 s⁻¹

B10: CYP3A4.31 (Homo sapiens; H324Q) (protein)
chain: MALIPDLAMETWLLLAVSLVLLYLYGTHSHGLFKKLGIPGPTPLPFLGNILSYHKGFCMFDMECHKKYGKVWGFYDGQQPVLAITDPDMIKTVLVKECYSVFTNRRPFGPVGFMKSAISIAEDEEWKRLRSLLSPTFTSGKLKEMVPIIAQYGDVLVRNLRREAETGKPVTLKDVFGAYSMDVITSTSFGVNIDSLNNPQDPFVENTKKLLRFDFLDPFFLSITVFPFLIPILEVLNICVFPREVTNFLRKSVKRMKESRLEDTQKHRVDFLQLMIDSQNSKETESHKALSDLELVAQSIIFIFAGYETTSSVLSFIMYELATQPDVQQKLQEEIDAVLPNKAPPTYDTVLQMEYLDMVVNETLRLFPIAMRLERVCKKDVEINGMFIPKGVVVMIPSYALHRDPKYWTEPEKFLPERFSKKNKDNIDPYIYTPFGSGPRNCIGMRFALMNMKLALIRVLQNFSFKPCKETQIPLKLSLGGLLQPEKPVVLKVESRDGTVSGA
- Km [10]: 4.80 ± 0.99 µM
- kcat [10]: 0.319 ± 0.0488 s⁻¹
